± gives the standard deviation of the averaged measurements. This is one part of the list.
system: PfAP2-EXP AP2 domain (GST-tagged); test: gcPBM binding intensity (ln(normalized median fluorescence intensity)); higher = stronger DNA binding
Outline: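 GST-tagged P. falciparum DNA-binding domains, expressed in E. coli (about 25 μg on average), were applied for 1 h to an Agilent 4 × 180k array of primer-extended double-stranded 36-bp intergenic genomic probes plus negative controls. The binding buffer was 1× PBS with 1% milk, 0.2 mg/ml BSA, 0.5% salmon testes DNA and 0.03% Triton X-100. Bound protein was detected with Alexa488 anti-GST antibody and scanned at 488 nm. Binding intensity is the highest Masliner-normalised natural-log median intensity across replicate spots of either probe orientation.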

Sequence | gcPBM binding intensity (ln)
TTTTTTATATTTAAACTTCACATGGTTTTCATTTAT [XGTACX_negctrl_site291] | 8.68 ± 0.32
ATACATATATATATATGTACACATAAACATGAGTGA [XGTACX_site3200] | 8.72 ± 0.3
TAATGGAAACCATTTATTTTCTGCAATATATTTTTT [CACACA_negctrl_site1653] | 8.08 ± 0.3
ATACATAAAATTAAAACACACATTTTATTAAATACG [CACACA_site2167] | 8.33 ± 0.13
GTGTGATGGTACAATATACACACTTAAAAAAAAAAA [CACACA_site8769] | 8.53 ± 0.48
AGTTATATGGTTAATACACACAACAAATGTTTCTTC [CACACA_site6642] | 8.57 ± 0.38
AAAAAATATATTTGCACACTCAAAAAAAAAAAAAAA [CACACA_site859] | 8.2 ± 0.53
AATATAACTTAGAATTGTACATAAAAAAAAATATAT [XGTACX_site3313] | 8.68 ± 0.35
TACCTAATATGTTATACACACATTATAAGTACATAT [CACACA_site7206] | 8.58 ± 0.27
TAAGAAATAAATAGTACACACATAGACACACGCACA [CACACA_site6821] | 9.03 ± 0.4
AAAAAAAAAAAAAAAAGTACATATATATATAATTAT [XGTACX_site7836] | 8.54 ± 0.43
AAATGATGCATTTGTCATTAAAATTGTGAAATATTA [CACACA_negctrl_site231] | 8.41 ± 0.49
ATAATATCTTCTTTTTTTTTTTTTTTTTTTTTTTTT [CACACA_negctrl_site1005] | 9.065 ± 0.049
ATATATATATAATGTGTACACACATATGTATTTATA [CACACA_site8170] | 9.78 ± 0.15
TAATTAAGATGATAAAAATTGAAAAAACAATTTTAA [CACACA_negctrl_site658] | 8.02 ± 0.49
TATAATAAAATATGTACACACATACAGACATATATA [CACACA_site6693] | 8.64 ± 0.35
CATATAGTATAAATTTGTACATAAATATATATATAT [XGTACX_site7477] | 9.67 ± 0.23
AGAGTATATAAAGTAACACACAATAAAATAAAATAA [CACACA_site2328] | 8.85 ± 0.28
AAGAAATATATATATATATATATATATATATATGTA [TGCATGCA_negctrl_site442] | 8.925 ± 0.078
TAATTTTATATTAAAAGTACATAATAAAAACTATAA [XGTACX_site8779] | 8.37 ± 0.3
TACATACACGGACACACACACATATATATATATATA [CACACA_site5883] | 10.2 ± 0.36
TGATGATATAAAAACACACACATATAATATAATACT [CACACA_site1208] | 8.7 ± 0.44

Sequence | gcPBM binding intensity (ln)
CACTAATATATATACAGTACATAATAAAGTATATAA [XGTACX_site6875] | 8.39 ± 0.33
TTTAAAAACAAATATTGTACAAATTAAAATATATCA [XGTACX_site7220] | 8.6 ± 0.33
AGAGCATAATAAAACACACACATACATACAGATATA [CACACA_site4671] | 8.69 ± 0.49
TATTACCCATATTATACACACATATATTATATATAT [CACACA_site1567] | 8.7 ± 0.26
CTGTTTTACTTTAGTAGTACAATAAAAATATAAAAA [XGTACX_site2934] | 8.57 ± 0.19
AAAAAAAAAAAACATACACACAAATATATACATACA [CACACA_site4011] | 8.54 ± 0.69
TAAATTTGTGGGATTTCACACAGGTTTATTTACATT [CACACA_site5455] | 8.13 ± 0.45
TTCAGAGAATAAAAATGTACATATAATATTTTAAAA [XGTACX_site577] | 8.37 ± 0.37
ATGTAGGTTAATTATTGTACGTAGGGGGTGTATATT [XGTACX_site3973] | 10.2 ± 0.48
CTCTTGTCATTTTGCACACACACATGTATAGGTTAT [CACACA_site3057] | 9.39 ± 0.23
GTTTACTAATATTGCACACGAATATGAAAAAGAGAA [CACACA_site2897] | 8.88 ± 0.25
TTTCTAATTTATATCACACACATATATTTATAGTAA [CACACA_site6280] | 8.43 ± 0.32
TTGCTTATTAAATGGGGTACATTATATATATATATA [XGTACX_site2515] | 9.89 ± 0.32
GTGTTAACTATTATGAGTACTTATGTATTAATTCAT [XGTACX_site7767] | 8.62 ± 0.19
ATACCTGTTGTGTTACGTACATAATTTTAATGTTTG [XGTACX_site8181] | 8.77 ± 0.41
AAATTCAATTTGCGCTGTACATGAAGATATAAATTT [XGTACX_site4844] | 9.02 ± 0.52
TATTTTTTAAAAAATTATAAATAAAATTATATTACG [CACACA_negctrl_site324] | 8.19 ± 0.43
TATATATATAAATACACACACACACCCCAAAGCGTA [CACACA_site4211] | 9.18 ± 0.46
AAAAAAAACACGCGCACACACACACCCACAGACACA [CACACA_site5253] | 8.62 ± 0.5
ACAGTATATTAAAAAATACACACGTATTATATCTAC [CACACA_site2640] | 8.27 ± 0.37
TATAATATATTCACTCGTACATATTTAATAATATCT [XGTACX_site6209] | 8.54 ± 0.42
ATTTTATTTTTGTGCACACTGATAAATTGAAAAGAG [CACACA_site2948] | 9.11 ± 0.18

Sequence | gcPBM binding intensity (ln)
TATTACACATATTATGTGCACATATATAATCAATAT | 9.04 ± 0.092
AAAAAAAAAAATTAAAGTACTAATTAAAATTATATG [XGTACX_site5289] | 8.17 ± 0.35
TATATATATATAATATGTACATATATTAAGCATTTT [XGTACX_site4470] | 9.53 ± 0.042
ATAAATTTTTTATGAACACACAAATACCCACGCTCA [CACACA_site2659] | 8.79 ± 0.43
TTTTAATTAAATAAATGTACTCATTCTATTATTTAT [XGTACX_site3032] | 8.41 ± 0.35
AATAAAAAACATGAAAGTACTTTAAAAAAGGTAATA [XGTACX_site1897] | 8.9 ± 0.45
AAGTACATACATAAAACACACACATATATATATATA [CACACA_site8541] | 10.2 ± 0.17
AATATATAAATCAATAGTACATATATATATATATAT [XGTACX_site3898] | 10 ± 0.35
ATTAAGTACTAAAAAGTGCAGTTCGGTACTGTGCTT [GTGCAC_site9755] | 8.42 ± 0.014
ATGTATAAACAAAAGGGTACATATATATATATATAT [XGTACX_site2087] | 10.1 ± 0.49
AGAAAAATTACAAAATGTACATAATGTGTTATTAAT [XGTACX_site7877] | 8.55 ± 0.46
TTATATAAAGAATGTACACACAGAAATGCACCCACA [CACACA_site2282] | 9.49 ± 0.23
ATTAAATATGAGGGAACACACACATGATATATAAAT [CACACA_site8755] | 8.94 ± 0.38
TTATATTTATAAAGGTGTACCTTAAAATGATTTTAC [XGTACX_site3774] | 8.19 ± 0.25
ATATATTATATTAATTGTACATAAAAAAGAGAAAAA [XGTACX_site3366] | 8.71 ± 0.48
AAAATTAAATAAAAATGTACAGAAATATTATATGAA [XGTACX_site5695] | 8.76 ± 0.59
CCAAAAAATATATGTAGTACTACATTATTAAATATG [XGTACX_site5128] | 8.93 ± 0.37
TTTTTTTTTTTTTCTTCACACACAGTACTACTATTT [CACACA_site8759] | 8.61 ± 0.49
TTAGCTTTTTTTTAAACATGCAACTACTTGATCCAC [TGCATGCA_site1017] | 8.61 ± 0.32
TATTTATTATTATGTACACACTATATTAAAACATAA [CACACA_site4549] | 8.55 ± 0.15
AGTATACGCAGACACACACACACATATATATATATA [CACACA_site1735] | 10.2 ± 0.46
TATGTGAATCCTAAGTGTACACATCTTACATATATA [XGTACX_site2506] | 9.18 ± 0.41

Sequence | gcPBM binding intensity (ln)
ATAAGATGATTAATTACACACTTTATAGGATATTTA [CACACA_site1711] | 8.09 ± 0.34
GGTATATGCATAAAGAGTACGTAACTTCTTTTTGTT [XGTACX_site6344] | 8.81 ± 0.28
AAATGTGTAAATATAATTAGTTTCACAAAACAAATA [GTGCAC_negctrl_site543] | 8.23 ± 0.4
TATATAATATTCTACACACCAACAACAAACATATAT [CACACA_site567] | 8.91 ± 0.67
ATATATATATTTATATGTACATAATATAAAATTTCT [XGTACX_site3720] | 9.155 ± 0.021
ATATTCTGATTTTAGATGCACTTCGTTAACAAAATA [GTGCAC_site9958] | 8.63 ± 0.34
AAAAGAATAATAATTTATGTATATTAATTAAAGAAT [XGTACX_negctrl_site402] | 8.34 ± 0.66
TTATATATATGTGTATGTACATATATATATATATAT [XGTACX_site1141] | 10.1 ± 0.32
TATCATATATTATATGCACACATGTTTTTCAAGAAT [CACACA_site1892] | 8.88 ± 0.25
AAACGTAACATATATATATATATATATAAGATATAT [CACACA_negctrl_site126] | 8.88 ± 0.13
AATGAATATATATAAATATATATATATATATATATA [CACACA_negctrl_site1494] | 10 ± 0.43
ATAAATCTACACCGCACACAAAAACAACAAATATTA [CACACA_site5396] | 8.64 ± 0.58
ATGTTATTACATAATTGTACATTTTGAGCAATTAAG [XGTACX_site4640] | 8.28 ± 0.26
ATATTTGTATAAATTGCACACTTTATTTTTTTTAAG [CACACA_site1558] | 8.55 ± 0.42
ATACATAAAATTAAAACACACATTTGATTAAATACG [CACACA_site7088] | 8.54 ± 0.39
ATCAAGCGCAATGTGGTGCGTAAATTTTGTATTATA | 8.74 ± 0.092
GTCTAAGCTTATAGGCGTACACATGAATATGGATGT [XGTACX_site2439] | 8.77 ± 0.46
AAAGGATACAGACACACACACACATATATATATATA [CACACA_site906] | 10.1 ± 0.4
GGATTTATTATATATACACACATACATATATATATA [CACACA_site8669] | 9.84 ± 0.16
ATAAGAAAAAAGAACTGTACTAATAAAATATAAAAA [XGTACX_site3715] | 8.71 ± 0.38
ATTATATAATTGTCTTCACACACACCGATATATATA [CACACA_site8883] | 8.93 ± 0.51
ATAATATATATACAAACACACAATTGTGTCCACATT [CACACA_site1747] | 8.94 ± 0.28
